# Measured values reported in article PMC4336329 (PLoS ONE, 2015).
# About 14,000 (4.5%) of roughly 310,000 compounds showed an effect of 50% or more. The effect is printed as a negative number. This is one part of the list.
# Biological target: human ether-à-go-go-related gene (hERG) potassium channel (human, UniProt Q12809)
# Experiment: primary screen, population patch clamp on CHO cells stably expressing hERG
# 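Also: peak tail current of the secondary pulse compared with the same well before compound.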
# human ether-à-go-go-related gene (hERG) potassium channel, sequence (Q12809 whole entry, looked up): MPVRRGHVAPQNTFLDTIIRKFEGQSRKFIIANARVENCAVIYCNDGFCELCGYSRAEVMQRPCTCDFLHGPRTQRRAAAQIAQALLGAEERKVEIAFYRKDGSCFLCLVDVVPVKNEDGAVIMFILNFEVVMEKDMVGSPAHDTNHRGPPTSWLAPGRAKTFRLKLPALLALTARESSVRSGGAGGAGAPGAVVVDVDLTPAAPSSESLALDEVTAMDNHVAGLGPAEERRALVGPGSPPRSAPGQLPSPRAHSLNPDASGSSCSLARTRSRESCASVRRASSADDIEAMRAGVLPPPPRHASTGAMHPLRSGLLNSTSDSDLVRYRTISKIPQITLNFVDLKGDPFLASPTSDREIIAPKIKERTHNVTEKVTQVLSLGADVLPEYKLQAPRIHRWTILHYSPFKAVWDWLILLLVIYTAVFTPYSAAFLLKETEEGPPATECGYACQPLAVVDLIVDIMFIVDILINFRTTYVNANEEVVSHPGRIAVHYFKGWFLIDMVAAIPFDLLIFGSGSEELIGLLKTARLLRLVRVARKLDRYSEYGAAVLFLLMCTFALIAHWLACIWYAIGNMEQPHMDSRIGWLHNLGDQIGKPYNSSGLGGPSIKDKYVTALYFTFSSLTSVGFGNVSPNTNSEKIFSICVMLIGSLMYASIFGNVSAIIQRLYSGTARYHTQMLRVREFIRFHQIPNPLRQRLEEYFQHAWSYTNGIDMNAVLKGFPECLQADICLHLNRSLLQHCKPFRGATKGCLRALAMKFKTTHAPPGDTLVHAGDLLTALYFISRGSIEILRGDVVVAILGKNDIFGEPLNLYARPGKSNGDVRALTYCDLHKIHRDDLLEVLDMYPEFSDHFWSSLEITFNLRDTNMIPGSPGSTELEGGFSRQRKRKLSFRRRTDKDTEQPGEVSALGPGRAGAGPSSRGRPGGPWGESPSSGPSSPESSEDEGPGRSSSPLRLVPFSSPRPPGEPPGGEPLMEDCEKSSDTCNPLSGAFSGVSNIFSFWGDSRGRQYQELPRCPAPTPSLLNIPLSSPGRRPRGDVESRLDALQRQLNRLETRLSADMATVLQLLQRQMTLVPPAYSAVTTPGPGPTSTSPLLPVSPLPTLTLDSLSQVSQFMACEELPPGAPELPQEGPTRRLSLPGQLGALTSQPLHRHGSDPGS
row,Compound,"hERG current change (%, negative = inhibition) at 10uM [%]"
1,Cc1cc(N2CCCC2)ccc1/C=C1\NC(=S)N(C)C1=O,-19.8
2,O=C(COC(=O)c1ccc2[nH]c3c(c2c1)CCCC3)NC1CCS(=O)(=O)C1 (stereo not drawn),-8.48
3,O=C1CC(SC(=NCc2ccc3c(c2)OCO3)Nc2ccccc2)C(=O)N1 (stereo not drawn),4.04
4,N#CC[N+]1(CCCNP2(=O)C=C(c3ccccc3)OC(c3ccccc3)=C2)CCOCC1.[Cl-],-63.5
5,COC(=O)c1ccc(-n2c(C)nc3ccccc3c2=O)cc1,6.39
6,CC(=O)Nc1ccc(S(=O)(=O)Oc2ccc(/C=N/NC(=O)c3ccc(Cl)cc3)cc2)cc1,16.6
7,COc1ccc(C2C(C(=O)N3CCCC3)c3cc(OC)c(OC)cc3C(=O)N2C)cc1OC (stereo not drawn),0.414
8,c1ccc(Cc2nnc3sc(-c4ccncc4)nn23)cc1,-27.4
9,COc1ccc(C2=NN(C(=O)c3cccc([N+](=O)[O-])c3)C(c3cccc([N+](=O)[O-])c3)C2)cc1 (stereo not drawn),-15.7
10,CCCn1cc(S(=O)(=O)CC(=O)Nc2ccc(OCC)cc2)c2ccccc21,-13.6
11,Cn1nnc2cc(C(=O)N3CCSCC3)ccc21,9.56
12,CN(C)c1ccc(N=Cc2nc(-c3ccccc3)oc2OC(=O)c2cccc(Br)c2)cc1,-3.69
13,O=C(NC(=S)Nc1cccc(-c2ccc(CO)o2)c1)c1cccs1,23.7
14,O=C1CCN(S(=O)(=O)c2ccccc2)C2CCCCC12 (stereo not drawn),-7.54
15,Cc1ccc(C)c(CSc2nnc(-c3cccs3)n2Cc2ccco2)c1,-24.6
16,Cc1oc2cc(O)ccc2c(=O)c1Oc1ccc(F)cc1,14.2
17,CCn1cc(Cl)c(C(=O)Nc2cccc(C(F)(F)F)c2)n1,-6.89
18,Cc1cccc(Oc2sc(C(=O)c3ccccc3)c(N)c2C#N)c1,-8.01
19,Cc1cc(C(=O)O)c(CCCN)s1.Cl,14.7
20,COc1ccc(CCNC(=S)Nc2ccc(C(C)C)cc2)cc1,4.14
21,COc1cccc(-c2nnc3sc(-c4cccs4)nn23)c1,12.3
22,O=C(COc1ccc(-c2nnco2)cc1)N1CCN(S(=O)(=O)c2ccc3ccccc3c2)CC1,0.322

row,Compound,"hERG current change (%, negative = inhibition) at 10uM [%]"
1,CCc1ccc(N(C)S(=O)(=O)c2ccc3[nH]cc(C(=O)NCCN4CCOCC4)c(=O)c3c2)cc1,-8.18
2,O=C(CN1CCCC1=O)NC1(C(F)(F)F)NC(=O)N(Cc2ccccc2)C1=O (stereo not drawn),13.7
3,CC(C)n1c(S(=O)(=O)O)nc2ccccc21,22.6
4,NS(=O)(=O)c1cccc(NC(=O)COC(=O)CCCc2c[nH]c3ccccc23)c1,16.4
5,Cl.N=c1n(CCN2CCOCC2)c2ccccc2n1CC(O)COc1ccccc1 (stereo not drawn),-39.3
6,C#CCNC(=O)C1=C[C@@H](C2CCCCC2)C[C@@H](OCCCCO)O1,5.41
7,CC(=O)Nc1cccc2c1C(=O)N(c1ccc(C)cc1)C2=O,14.3
8,COC(=O)c1cc(Br)c(=O)n(Cc2ccc(OC)c(OC)c2)c1,16.6
9,CCc1ccc(N2CN(Cc3ccco3)CNC2=S)cc1,-0.47
10,COc1ccc2[nH]cc(C(=O)CN(C)C)c2c1,9.06
11,O=C(NNC(=O)c1cc2cc(OC(F)(F)F)ccc2[nH]1)c1ccc(Cl)cc1,3.34
12,c1cnc2ccc(C(c3nnnn3C3CCCC3)N3CCN(c4nc5ccccc5s4)CC3)cc2c1 (stereo not drawn),-37
13,CC1CC(C)(C)NC(=S)N1CCC(=O)Nc1ccc2c(c1)OCCO2 (stereo not drawn),18.3
14,O=C(Nc1ccc(F)cc1)OCCOc1ccc([N+](=O)[O-])cc1,-14.9
15,Cc1cc(C)n(-c2nc3ccccc3c(=O)n2OCc2ccc(Cl)cc2)n1,0.333
16,COc1ccc([N+](=O)[O-])cc1N(CC(=O)Nc1ccccc1C(=O)N1CCOCC1)S(C)(=O)=O,-19.4
17,O=C(c1ccccc1)c1c(-c2ccccc2)[nH]n(-c2ccccc2)c(=O)c1=O,13
18,CC(=O)NC(CCS(C)(=O)=O)C(=O)Nc1cc(Cl)ccc1Cl (stereo not drawn),-2.89
19,O=C(CCl)N(c1ccccc1)C1CCCCC1,10.4
20,COc1ccc(CCNC(=O)Cn2cnc3c(cnn3C(C)(C)C)c2=O)cc1OC,-0.127
21,CN(CCO)S(=O)(=O)c1ccc2c(c1)C(=NO)c1cc(S(=O)(=O)N(C)CCO)ccc1-2,3.14
22,O=c1c(F)cn(C2CCCO2)c(=O)n1Cc1c(F)cccc1Cl (stereo not drawn),-6.4

row,Compound,"hERG current change (%, negative = inhibition) at 10uM [%]"
1,COc1cccc(C(=O)Oc2ccc3ccc(=O)oc3c2)c1,42.3
2,CC(C)CNC(=O)CC(NCC(C)C)C(=O)O (stereo not drawn),7.15
3,COc1ccc(OC)c(-c2cc(C3CCN(c4cc(Cl)nc(N)n4)CC3)[nH]n2)c1,-6.76
4,C/C(Cc1ccccc1)=N\NC(=O)CNC(=O)c1cccc(Br)c1,-7.73
5,O=C(Nc1ncccc1Cl)C(Sc1ccccc1)c1ccccc1 (stereo not drawn),8.58
6,Cc1ccc(/C=C(\NC(=O)c2ccccc2)C(=O)NC(Cc2ccccc2)C(=O)O)cc1 (stereo not drawn),16.4
7,Cn1c(=O)c2c(nc(SCC(=O)N3CCCCCC3)n2C)n(C)c1=O,-0.75
8,O=C(NC(=S)Nc1ccc(N2CCOCC2)cc1)c1cncc(Br)c1,19.5
9,CC(C)[C@H](NC(=O)c1ccco1)C(=O)N(C)Cc1c(F)cccc1Cl,-32.3
10,CCN1C(=C2C(=O)c3ccccc3C2=O)C=Cc2ccccc21,1.88
11,C=CCOc1ccc(C(c2c(C(=O)O)[nH]c3ccccc23)c2c(C(=O)O)[nH]c3ccccc23)cc1,6.74
12,O=C(CCC(NC(=O)OCc1ccccc1)C(=O)O)OCc1ccccc1 (stereo not drawn),24.3
13,CCC(C)[C@H](NC(=O)N1CC(=O)Nc2ccccc21)C(=O)Nc1nccs1 (stereo partly drawn),1.18
14,COc1cc(C(=O)Nc2ccc3c(c2)N(C(=O)CN2CCN(C)CC2)c2ccccc2CC3)cc(OC)c1OC.Cl,7.61
15,O=C(Oc1ccc(Cl)c2cccnc12)c1cccnc1,8.73
16,CCOC(=O)NC(NC(=S)Nc1ccc(OCC)cc1)C(Cl)(Cl)Cl (stereo not drawn),2.25
17,COc1ccc(OCC(=O)N2CC3(C)CC2CC(C)(C)C3)cc1 (stereo not drawn),-21.2
18,O=S(=O)(NCc1ccccn1)C(F)(F)F,7.84
19,COc1ccc(S(=O)(=O)Oc2ccc3c(c2)O/C(=C\c2cccnc2)C3=O)cc1,-3.29
20,CCOC(=O)c1cc(-c2ccc(N)cc2)sc1N,-7.2
21,Cc1c(Br)c([N+](=O)[O-])nn1CC(=O)NC1CCCCCC1,13.3
22,CCCCOc1ccc(CONS(=O)(=O)c2ccc(NC(C)=O)cc2)cc1Cl,7.43

row,Compound,"hERG current change (%, negative = inhibition) at 10uM [%]"
1,CC(=O)Nc1ccc(OCC(O)CN2C(C)CCCC2C)cc1.Cl (stereo not drawn),19.1
2,Cc1cccc(CN2CCN(Cc3ccc(-n4cccn4)cc3)CC2CCO)n1 (stereo not drawn),-30.2
3,COc1cc([N+](=O)[O-])ccc1NC(=O)NNC(=O)CCc1ccccc1,-5.13
4,CCN(CC)CCN(C)C(=O)c1ccc(OC2CCN(C(=O)C3CC3)CC2)cc1,-0.764
5,COc1ccc(C2NC(=O)C(C)S2)cc1 (stereo not drawn),13.8
6,CCOc1ccc(C(=O)Nc2cc(C)on2)cc1OCC,10
7,CCOC1=C/C(=C/c2c(N)n3nc(CC(=O)N4CCCC4)sc3nc2=O)C=CC1=O,17.7
8,Cc1ccc(C=Nc2ccccc2C(N)=O)o1,10.6
9,CN1C(=O)/C(=C/c2cccc(Cl)c2)Sc2ccc(C(=O)N3CCOCC3)cc21,-50.3
10,Cc1ccc(C)c(NC(=O)CSc2nnc(-c3ccncc3)n2N)c1,5.07
11,CC(C)C(c1nnnn1Cc1ccc2c(c1)OCO2)N1CCN(C)CC1.Cl (stereo not drawn),-0.377
12,Cc1cccc(NC(=O)CCCC(=O)OC(C)C(=O)c2ccccc2)c1 (stereo not drawn),-6.58
13,Cc1ccccc1C1=N/C(=C/c2cccnc2)C(=O)O1,11.4
14,CN(C)S(=O)(=O)c1ccc(NC(=O)CSc2nc3ccccc3n2-c2ccccc2)cc1,24.2
15,Cc1ccc2cc(C=O)c(Cl)nc2c1,33
16,CC(=O)NC(=S)Nc1cc(C(=O)O)ccc1Cl,-64.9
17,O=C(NCC(=O)N(CC1CCCO1)C1(C(=O)NC2CCCC2)CCCCC1)c1ccccc1 (stereo not drawn),3.96
18,CN(CC(=O)Nc1ccc(F)c(F)c1F)C(=O)CN1C(=O)NC2(CCCC2)C1=O,1.01
19,O=C(Nc1nncs1)C12CC3CC(CC(Cl)(C3)C1)C2,6.85
20,CCCCNC(=O)CN(C1CCCCC1)S(C)(=O)=O,13.1
21,NC(=O)CSc1nnc(Cc2csc(Nc3ccccc3)n2)n1Cc1ccccc1,-8.6
